Among the data in article PMC6088137 are binding values, retold here.

Chains of the proteins cited; added tags and fusions are not shown. Lines headed by an entry give the natural chain unless they say otherwise; changes in a name come on top. A line that says so, or that is headed by a name, gives the form on record, which may keep a tag or linker.
UniProt Q9H6Z9: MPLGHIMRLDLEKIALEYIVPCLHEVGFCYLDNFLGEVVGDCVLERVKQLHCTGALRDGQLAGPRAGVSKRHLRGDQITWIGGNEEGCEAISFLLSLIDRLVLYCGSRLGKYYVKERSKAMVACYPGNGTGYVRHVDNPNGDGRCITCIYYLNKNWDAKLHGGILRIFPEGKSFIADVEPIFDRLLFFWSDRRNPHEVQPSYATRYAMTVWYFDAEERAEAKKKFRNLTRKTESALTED
PHD3 HD135/137AA (Q9H6Z9, form named): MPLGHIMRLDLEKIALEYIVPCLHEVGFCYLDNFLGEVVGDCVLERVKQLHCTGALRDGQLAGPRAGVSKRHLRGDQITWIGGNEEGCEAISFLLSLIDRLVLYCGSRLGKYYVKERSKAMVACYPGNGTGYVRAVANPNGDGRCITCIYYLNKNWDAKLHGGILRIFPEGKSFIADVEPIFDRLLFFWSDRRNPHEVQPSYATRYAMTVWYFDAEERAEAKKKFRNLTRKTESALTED

Experiment [1] concerns the target T1, biotinylated peptide, amino acids 349-371 of human p53, hydroxylated at proline 359 (human).
T1 sequence (peptide, hydroxyproline at 359; biotin): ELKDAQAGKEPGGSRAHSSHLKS
Description: pull-down; biotinylated p53 peptides (349-371; proline or hydroxyproline at 359) bound to streptavidin agarose beads, incubated with lysates of transfected HEK293T cells; streptavidin agarose beads alone as negative control; western blot; only the target purified. (In western blotting, separated proteins are transferred to a membrane and probed.)

Experiment [2] has as its target endogenous p53 (HEK293T) (human (endogenous in HEK293T)) (UniProt P04637). As to the kind of experiment: co-IP; HEK293T transfected with PHD3 wt, H196A or HD135/137AA, with or without DMOG for 4 hr; endogenous p53 immunoprecipitated, western blot.
Another experiment has as its target GST-p53 (human) (UniProt P04637). Description: pull-down; bacterial expressed GST-p53 bound to agarose beads, incubated 2 hr with lysates of HEK293T transfected with V5-PHD3, with or without DMOG for 4 hr; western blot; only the target purified.
Experiment [3] deals with endogenous p53 (HeLa) (human (endogenous in HeLa)) (UniProt P04637). As to the kind of experiment: co-IP; HeLa cells with or without DMOG for 4 hr; endogenous PHD3 or endogenous p53 immunoprecipitated, pre-immune antibody as negative control; immunoblot.
For a further experiment, the target named is V5-tagged PHD3 (UniProt Q9H6Z9). As to the kind of experiment: co-IP; HEK293T transfected with V5-tagged PHD3; DMSO, DMOG or JNJ for 4 hr; V5 immunoprecipitation, western blot for p53.
Experiment [4] addresses endogenous PHD3 (HeLa) (human (endogenous in HeLa)) (UniProt Q9H6Z9). Description: co-IP; HeLa cells with or without DMOG for 4 hr; endogenous PHD3 or endogenous p53 immunoprecipitated, pre-immune antibody as negative control; immunoblot.

No constants are given. Whether binding was seen depends on the method and setting. In cells and extracts the contact can be indirect. Some entries that bind do so weakly or less than the wild type.

With “Flag-tagged USP7 (from UniProt Q93009 1-1102) (enzyme)”, the binding entry in experiment [1] was “binds”.

Turning to “PHD3 H196A (from UniProt Q9H6Z9 1-239) (enzyme)”, the binding result in experiment [2] was “no binding”. The same measure, in the same setting: next, “PHD3 HD135/137AA (from UniProt Q9H6Z9 1-239) (enzyme)”: “no binding”; “PHD3 wt (Figure 1E) (from UniProt Q9H6Z9 1-239) (enzyme)”: “binds”. Regarding “V5-tagged PHD3 (from UniProt Q9H6Z9 1-239) (enzyme)”, in the experiment with GST-p53 (human), the binding result is “binds”. In the case of “endogenous PHD3 (HeLa) (from UniProt Q9H6Z9 1-239) (enzyme)”, the binding result in experiment [3] is listed as “binds”. For “endogenous p53 (HEK293T) (from UniProt P04637 1-393)”, the binding entry in the experiment with V5-tagged PHD3 is recorded as “binds”. Turning to “endogenous p53 (HeLa) (from UniProt P04637 1-393)”, the binding result in experiment [4] was “binds”.
